Whole data set: some 110,000 compounds, median “z-score” near -0.1, cut for the highest 2% near 2. Some of the results follow. Activity calls are given as the source filed them.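 Rule for the calls: active = z-score in the third read window above 3 or below -3; inactive = the rest.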
target: Metabotropic glutamate receptor 8 (Rattus norvegicus) (UniProt P70579); experiment: mGluR8 Gi/Go-coupled signaling modulation – cell-based, rat, thallium flux, HTS, primary screen (AID 488969); conditions: HEK293 rat mGluR8, GIRK (G protein-gated inwardly rectifying potassium channel) thallium flux, FluoZin2; at 10 µM; stronger effect = higher value; submaximal glutamate (EC20) added with thallium
UniProt P70579, sequence (P70579 whole entry, looked up): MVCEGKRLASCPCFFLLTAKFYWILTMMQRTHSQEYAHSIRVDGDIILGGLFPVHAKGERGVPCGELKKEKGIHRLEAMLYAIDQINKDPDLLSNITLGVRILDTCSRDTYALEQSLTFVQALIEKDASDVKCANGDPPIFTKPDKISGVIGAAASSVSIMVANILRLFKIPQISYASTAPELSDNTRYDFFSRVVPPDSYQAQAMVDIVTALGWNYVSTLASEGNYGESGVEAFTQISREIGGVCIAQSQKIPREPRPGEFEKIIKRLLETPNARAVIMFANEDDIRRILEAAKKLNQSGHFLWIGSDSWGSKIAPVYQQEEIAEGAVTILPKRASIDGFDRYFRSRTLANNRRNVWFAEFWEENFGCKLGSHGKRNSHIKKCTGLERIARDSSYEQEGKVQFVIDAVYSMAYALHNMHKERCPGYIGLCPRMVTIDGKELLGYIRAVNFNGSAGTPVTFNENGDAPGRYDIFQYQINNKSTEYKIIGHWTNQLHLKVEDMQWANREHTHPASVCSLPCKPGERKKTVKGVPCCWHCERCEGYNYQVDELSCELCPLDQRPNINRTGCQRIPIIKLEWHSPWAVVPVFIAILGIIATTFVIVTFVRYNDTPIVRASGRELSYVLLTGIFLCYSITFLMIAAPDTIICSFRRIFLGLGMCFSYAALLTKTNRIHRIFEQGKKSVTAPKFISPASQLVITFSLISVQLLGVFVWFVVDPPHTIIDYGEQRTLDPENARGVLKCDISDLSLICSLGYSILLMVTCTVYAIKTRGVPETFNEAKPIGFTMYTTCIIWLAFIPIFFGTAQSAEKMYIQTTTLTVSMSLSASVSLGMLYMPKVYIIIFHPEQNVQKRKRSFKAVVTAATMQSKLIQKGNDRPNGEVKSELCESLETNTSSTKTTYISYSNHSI

Row | Structure (SMILES) | z-score
1 | Cc1nc(C)c(-c2csc(Nc3cccnc3)n2)s1 | -0.44
2 | Cc1ccc(S(=O)(=O)N2CCN(C3CC(=O)N(Cc4ccccc4)C3=O)CC2)cc1C (centres undefined) | -0.767
3 | COC(=O)C1=C(C)NC(C)=C(C(=O)OC)C1c1cc2cc(C)ccc2[nH]c1=O | 0.059
4 | CC(=O)Nc1ccc(Oc2cc(C#N)c(C#N)cc2N2CCOCC2)cc1 | 0.123
5 | COc1cccc(CNC(=O)CSCc2cnn(-c3ccccc3)c2-n2cccc2)c1OC | 0.523
6 | COc1ccc(C(=O)NC(=S)NC(C)C)cc1Br | 1.79
7 | CCCc1nc2ccccc2c(C(=O)OCC(=O)NCc2ccco2)c1CC | -0.557
8 | COc1cc(-c2nc(S(=O)(=O)c3ccccc3)c(N3CCOCC3)o2)cc(OC)c1OC | 0.0345
9 | Oc1ccc(/C=N/Nc2nccnc2Cl)cc1 | 0.0312
10 | COc1cccc(Nc2nc(NCCO)c3ccccc3n2)c1 | -0.496
11 | CCC(SCC(=O)OC)C(=O)Nc1nnc(C(C)C)s1 (centres undefined) | -0.478
12 | CCCN(Cc1cc2ccc(C)cc2[nH]c1=O)S(=O)(=O)c1ccccc1 | 0.0039
13 | Cc1ccc(C)c(N2C(=O)CN=C2Nc2ccccc2Cl)c1 | -0.307
14 | CCOc1cc(CNn2cnnc2)ccc1OCC(=O)NC1CCCCC1 | -0.0663
15 | Cc1cccc(NC2=NCC(=O)N2Cc2ccccc2)c1 | -0.249
16 | CCCCSc1nc(C)cc(NC(=S)Nc2ccc(OC)cc2)n1 | 1.27
17 | O=C(CN1CCN(Cc2ccccc2)CC1)c1ccccc1 | -1.02
18 | CCn1nc2cc(C(=O)NCC34CC5CC(CC(C5)C3)C4)ccc2c1OC | -0.258
19 | CC1(C)CC(=O)C2=C(C1)N(C1CCCCC1)C(=O)C2(O)C(F)(F)F (centres undefined) | -0.133
20 | COCCNC(=O)COc1ccc(Br)cc1Cl | -0.00967
21 | CCCN1CCN(C(=O)c2cccc3c2C(=O)N(CCOC)C3)CC1 | -0.608
22 | CCCCNC(=O)NNC(=O)COc1cc(C)cc(C)c1 | -0.202
23 | CCOc1cc(/C=N/n2cnnc2)cc(Br)c1O | 0.377

Row | Structure (SMILES) | z-score
24 | COc1ccc(C(=O)N(C)Cc2ccccc2)cc1Br | -0.329
25 | c1cncc(-c2noc(C34CC5CC(CC(C5)C3)C4)n2)c1 | 0.166
26 | Cc1c(NC(=O)c2ccc3c(c2)OCO3)cccc1-c1nc2ccccc2s1 | -0.296
27 | CCn1c(Cn2nnc(-c3ccccc3)n2)nnc1SCc1ccc(Cl)c(Cl)c1 | -0.359
28 | Cc1ccc(S(=O)(=O)CCC(=O)N2CCN(c3ccc(Cl)cc3)CC2)cc1 | -0.426
29 | CCc1nnc(NS(=O)(=O)c2ccc(NC(=S)NC(=O)c3ccc(OC)c(OC)c3)cc2)s1 | -0.423
30 | CCOC(=O)c1sc(NC(=O)c2ccncc2)nc1C | -0.254
31 | COc1cccc(CNC(=O)c2ccc(S(=O)(=O)N3CCCC3)cc2)c1 | -0.159
32 | O=C(Cn1nnc(-c2ccncc2)n1)N1CCc2ccccc21 | 1.39
33 | c1ccc(-n2c(SCc3ccncc3)nnc2-c2ccco2)cc1 | -1.1
34 | CCOc1ccc(-c2noc(CCCC(N)=O)n2)cc1OC | -0.356
35 | CC1(C)CC(N(Cc2ccco2)C(=O)Cc2ccccc2)CCO1 (centres undefined) | 0.681
36 | CC(Oc1ccccc1)C(=O)Nc1cccc(-c2nc3ccccc3[nH]2)c1 (centres undefined) | -0.367
37 | N#CCCCCn1c(-c2cncs2)nc2ccccc21 | 0.399
38 | O=C1CCCC(=O)C1=Cc1c[nH]c2ccccc12 | -1.69
39 | CCc1nccn1S(=O)(=O)c1ccc(C)c(C)c1 | -0.0208
40 | CCOc1ccc(C2C3=C(Nc4nc(N)[nH]c(=O)c42)c2ccccc2C3=O)cc1 (centres undefined) | -0.168
41 | Cc1ccc(S(=O)(=O)CNC(=S)c2ccc3ccccc3c2)cc1 | -0.134
42 | COc1ccc(-c2noc(CCC(=O)NCc3cc(Br)ccc3OC)n2)cc1 | 1.13
43 | CCN1CCN(CC(=O)Nc2ccc3c(c2)OCCO3)C(=O)C1=O | 0.232
44 | CCn1c(Cc2c(C)[nH]c3ccccc23)nnc1SCC(=O)NCc1ccco1 | -0.0935
45 | COc1cccc(/C(O)=C2/C(=O)C(=O)N(c3ccccn3)C2c2ccc(OC)c(OC)c2)c1 (centres undefined) | -0.205
46 | CS(=O)(=O)N(Cc1ccc(Cl)cc1)c1ccc(C(=O)NCCC2=CCCCC2)cc1 | 0.108

Row | Structure (SMILES) | z-score
47 | CCCCC(c1nnnn1Cc1ccco1)N1CCN(C(=O)c2ccco2)CC1 (centres undefined) | 0.0939
48 | Cc1cc(C)nc(SCc2cc(=O)c(OC(=O)c3ccco3)co2)n1 | -0.383
49 | CCOCc1c(C(=O)OCC(=O)Nc2ccc(C)c(S(=O)(=O)N(C)C)c2)oc2ccccc12 | active: 9.51
50 | COc1ccccc1/C=C(/C(=O)OCC(=O)NCc1ccccc1)c1ccccc1 | -0.384
51 | COc1ccc(/C=C2\SC(=O)N(CCC(=O)Nc3ccccc3)C2=O)cc1OC | -0.151
52 | CCOC(=O)c1cn(-c2ccc(F)c(F)c2F)c2c(F)c(F)c(F)cc2c1=O | -0.165
53 | Cc1ccc(CSc2nc3ncccc3[nH]2)cc1 | 1.17
54 | Cc1cccc(NC(=S)NC2CCCCCC2)c1C | -0.188
55 | COc1ccc(OC)c(/C=C/C(=O)N(C)CC(=O)Nc2cc(C)ccc2C)c1 | -0.349
56 | CC(C)NC(=S)N/N=C1\CCCCC1C1CCCCC1 (centres undefined) | 0.726
57 | CCOC(=O)c1[nH]c2cc(OC)c(OC)cc2c1NC(=O)CN1CCN(c2ccc(OC)cc2)C(C)C1 (centres undefined) | -0.425
58 | O=C(NNc1cccc(Cl)c1)c1cccnc1Cl | -0.279
59 | CCOC(=O)C1CCCN(c2c(NCCCN3CCCC(C)C3)c(=O)c2=O)C1 (centres undefined) | 0.408
60 | CCc1ccc(C(=O)COC(=O)c2cc([N+](=O)[O-])ccc2NCCO)cc1 | 0.0448
61 | C=CCNC(=O)c1ccccc1NC(=O)c1ccc(Cl)c(S(=O)(=O)Nc2cc(C)ccc2C)c1 | -0.242
62 | CN1CSC2=C(C#N)C(c3cccc(OCc4ccccc4)c3)CC(=O)N2C1 (centres undefined) | 0.117
63 | CC(=O)Nc1ccc(NC2=Nc3ccccc3N3C2=Nc2c(c(C)nn2-c2ccccc2)C3c2ccccc2)cc1 (centres undefined) | -0.238
64 | CC(C)C(=O)N1CCN(CCN=CC2=C(O)CC(c3ccco3)CC2=O)CC1 (centres undefined) | 0.416
65 | CCOC(=O)c1sc(C)c2c1NC(c1ccc(N(C)C)cc1)NC2=O (centres undefined) | -0.041
66 | Cc1ccc(OCc2nnc(SCC(=O)c3cccc([N+](=O)[O-])c3)n2C)cc1 | -0.0978
67 | CCOC(=O)C1CCN(C(=O)CCn2c(=O)[nH]c3ccsc3c2=O)CC1 | -0.469
68 | CC(C)CC(=O)NC(=S)Nc1ccc(S(=O)(=O)N2CCN(C)CC2)cc1 | -0.0864
69 | Cc1cc(C)c(S(=O)(=O)c2ccccc2C)c(SCC(C)C)n1 | 0.132

Source: PubChem BioAssay AID488969 (Vanderbilt High Throughput Screening Facility, 2010)
